Screen size: about 370,000 compounds; about 150 (0.041%) were called active. The shares of active, inactive and inconclusive entries below differ from those in the screen. The call rests on the fitted dose curve; in most records, active means well fitted inhibition curve with a large enough effect; inconclusive means small, poorly fitted or top-dose-only effect; inactive means flat fitted curve, though single readings scatter. Potencies of inconclusive entries are left out as doubtful fits.
What follows are molecules tested against Beta-lactamase (Escherichia coli (strain K12)) (UniProt P00811) (assay: qHTS Inhibitors of AmpC Beta-Lactamase (assay with detergent)). Conditions: AmpC hydrolysis of nitrocefin, absorbance 480 nm, 0.01% Triton; activity change, negative = inhibition: at 114 µM (top of the series).
Sequence of UniProt P00811 (P00811 whole entry, looked up): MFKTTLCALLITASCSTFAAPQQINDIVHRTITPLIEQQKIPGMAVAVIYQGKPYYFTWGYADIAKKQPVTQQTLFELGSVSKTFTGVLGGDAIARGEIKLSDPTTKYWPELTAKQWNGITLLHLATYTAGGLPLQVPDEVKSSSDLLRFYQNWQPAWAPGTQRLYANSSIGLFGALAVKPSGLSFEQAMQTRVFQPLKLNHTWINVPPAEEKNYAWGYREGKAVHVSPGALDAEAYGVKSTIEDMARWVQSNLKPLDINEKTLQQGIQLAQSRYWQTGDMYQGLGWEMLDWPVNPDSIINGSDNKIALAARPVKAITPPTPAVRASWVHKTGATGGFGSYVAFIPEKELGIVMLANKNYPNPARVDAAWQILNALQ
How it was run: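 AmpC (5.3 nM in the dispensed reagent) in 20 mM phosphate pH 7.0 with 0.01% (detergent screen) or 0.0001% Triton X-100 was preincubated with compounds for 15 min at room temperature. Nitrocefin was then added from an 800 uM solution, and hydrolysis was followed at 480 nm.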
Further: nearly all actives have a fitted effect of over 25% in size.
Potency means the concentration at half of the fitted maximal effect; tags describe the fitted curve by direction and shape.
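Wherever activity change, negative = inhibition is given: 0% = no-compound wells and -100% = no-enzyme wells.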

| Structure (SMILES) | Potency | activity change, negative = inhibition |
| --- | --- | --- |
| Cc1nn(C(C)(C)C)c(OC(=O)c2ccc3c(c2)OCO3)c1S(=O)(=O)c1ccccc1 | inconclusive [inhibitor, full curve, poor fit] |  |
| CSc1ccccc1NC(=O)CN(c1cc(C)cc(C)c1)S(C)(=O)=O | inconclusive [inhibitor, partial curve] |  |
| CC(C)N(Cc1ccccc1)C(=O)CN1C(=O)c2ccccc2C1=O | inconclusive [inhibitor, partial curve] |  |
| CCS(=O)(=O)N1CCc2cc(C(=O)Nc3ccc(Br)cc3F)ccc21 | inconclusive [inhibitor, full curve, poor fit] |  |
| CCn1c(SCC(=O)N/N=C/c2ccc(C)s2)nc2ccccc21 |  | inactive: -1.24% |
| CC(=O)c1ccc(N2CCN(C(=O)c3cn(C)c(=O)c4c3c3ccccc3n4C)CC2)cc1 |  | inactive: 18.5% |
| CCOc1ccc(-n2c(=O)c3c(C)c(C)sc3n(CC(=O)C(C)(C)C)c2=O)cc1 |  | inactive: 15.8% |
| Cc1ccc(C(=O)COC(=O)c2ccccc2N2C(=O)C3C4CCC(C4)C3C2=O)cc1C (stereo not drawn) |  | inactive: -0.761% |
| CC1CCCCN1Cc1c(O)ccc2c(=O)c(-c3nc4ccccc4s3)c(N)oc12 (stereo not drawn) |  | inactive: -1.35% |
| COc1ccc(-c2cc(C(=O)Nc3cc(Br)ccc3O)no2)cc1 |  | inactive: -2.08% |
| CC1=C(C(=O)NCCN2CCOCC2)C2(CCC(C)CC2)OC1=O (stereo not drawn) | inconclusive [inhibitor, partial curve, poor fit] |  |
| COC(=O)N/N=C\c1ccccc1OC/C=C/c1ccccc1 | inconclusive [inhibitor, full curve, poor fit] |  |
| c1ccc(Cn2nnnc2CN2CCN(c3ncccn3)CC2)cc1 | inconclusive [inhibitor, single point] |  |
| COc1ccccc1OCC(=O)N(Cc1ccco1)Cc1ccccc1F |  | inactive: 20.1% |
| C=CCOC(=O)c1[nH]c2c(c1C)C(=O)CC(c1ccco1)C2 (stereo not drawn) | inconclusive [inhibitor, full curve, poor fit] |  |
| Cc1cc(C(=O)CCC(=O)NCc2ccccc2F)c(C)s1 | inconclusive [inhibitor, partial curve, poor fit] |  |
| CCN(CC)CC(=O)N1CCCC(N2CCN(c3cccc(C(F)(F)F)c3)CC2)C1 (stereo not drawn) | inconclusive [inhibitor, full curve, poor fit] |  |
| O=C(OCc1cccc(F)c1)c1ccc2c(=O)n3c(nc2c1)CCC3 |  | inactive: 2.49% |
| CCOC(=O)N1CCN(C(=O)c2ccc(NS(C)(=O)=O)cc2)CC1 | inconclusive [inhibitor, partial curve] |  |
| Cc1ccc(SCCNC(=O)c2ccccc2C)cc1 | inconclusive [inhibitor, single point] |  |
| Cc1cc(C(F)(F)F)c(C#N)c(N2CCOCC2)n1 | inconclusive [inhibitor, single point] |  |
| COc1ccc(CN2CCCC(N3CCc4ccccc4C3)C2)c(O)c1 (stereo not drawn) | inconclusive [inhibitor, full curve, poor fit] |  |

| Structure (SMILES) | Potency | activity change, negative = inhibition |
| --- | --- | --- |
| CCOc1ccc2nc(NCCNC(=O)Nc3cccc(C)c3)c(C#N)cc2c1 | inconclusive [inhibitor, partial curve, poor fit] |  |
| Oc1ccc(-c2cc(-c3ccc(O)cc3)nc(-c3ccccc3)n2)cc1 |  | inactive: -2.03% |
| CCN1C(=O)CC(C(=O)NC)SC1=Nc1cc(Cl)c(O)c(Cl)c1 (stereo not drawn) | inconclusive [inhibitor, full curve, poor fit] |  |
| Cn1c(=O)[nH]c(=O)c2c1nc(SCCN1CCOCC1)n2Cc1ccccc1 | inconclusive [inhibitor, full curve] |  |
| CC(=O)Nc1nc2c(c3c1c(=O)oc1ccccc13)CC(C)CC2 (stereo not drawn) | inconclusive [inhibitor, single point] |  |
| CC1(C)C(C=C(Cl)Cl)C1C(=O)N1CCN(Cc2ccccc2)CC1 (stereo not drawn) | inconclusive [inhibitor, partial curve] |  |
| Cn1nc(C(=O)Nc2ccc(S(=O)(=O)N3CCCCC3)cc2)c2ccccc2c1=O | inconclusive [inhibitor, partial curve] |  |
| CCOC(=O)C(C)n1cnc2c(nnn2Cc2ccc(Cl)cc2)c1=O (stereo not drawn) | inconclusive [inhibitor, full curve, poor fit] |  |
| O=S(=O)(c1ccccc1)N1CCN(C(=S)Nc2ccccc2Cl)CC1 | inconclusive [inhibitor, full curve, poor fit] |  |
| Cn1cc(CCC(=O)N2CCCC(N3CCN(c4ccccc4F)CC3)C2)cn1 (stereo not drawn) |  | inactive: 2.41% |
| CCOC(=O)Cn1nc(C)c(NC(=O)COc2ccccc2[N+](=O)[O-])c1C | inconclusive [inhibitor, full curve] |  |
| Cc1sc2ncn(CC(=O)N3CCC(C(N)=O)CC3)c(=O)c2c1S(=O)(=O)N1CC(C)CC(C)C1 (stereo not drawn) | inconclusive [inhibitor, single point] |  |
| CC1CCN(C(=O)CN(C)S(=O)(=O)c2cccc3nsnc23)CC1 |  | inactive: -14.8% |
| COc1cnc(-c2cccc(C(F)(F)F)c2)nc1OC | inconclusive [inhibitor, partial curve] |  |
| C=CCc1ccccc1OCC(O)CN1CCN(Cc2ccc3c(c2)OCO3)CC1 (stereo not drawn) | inconclusive [inhibitor, partial curve] |  |
| COc1cccc2cc(-c3cc(=O)oc4cc(C)c(O)cc34)oc12 | inconclusive [inhibitor, partial curve, poor fit] |  |
| O=C(CCSc1nc(-c2ccco2)cc(C(F)(F)F)n1)NCc1ccccn1 |  | inactive: 4.39% |
| O=C1C(SCCO)=C(SCCO)C(=O)c2ccccc21 | inconclusive [inhibitor, full curve, poor fit] |  |
| c1ccc(Cc2nc3ccccc3o2)cc1 | inconclusive [inhibitor, partial curve] |  |
| O=C(O)c1ccc(/C=N/NC(=O)c2cc3c(ccc4ccccc43)o2)cc1 | inconclusive [inhibitor, partial curve] |  |
| Cc1cc(N2CCOCC2)nc2ccc(NC(=O)CCC(=O)N3CCN(c4ccccc4)CC3)cc12 | inconclusive [inhibitor, single point] |  |
